In the supplement of paper PMC4967469:
A lower IC50 marks a more sensitive line; a limit (>, <) means that the fit lies beyond the doses tested. AUC is the area under the same curve over the 256-fold range up to the top dose, as a fraction: 1 means no effect, lower means more sensitive. For part of these data: The top dose, if marked as inferred, was calculated from the reported fits. For part of these data: An entry number marks a drug with two screens in the source, which often give different values.

What was measured:
Test in all cases: Viability of human cancer cell lines after 72 h of drug (GDSC screen)
AUY922 = compound: CCNC(=O)c1noc(-c2cc(C(C)C)c(O)cc2O)c1-c1ccc(CN2CCOCC2)cc1 [AUY922]; conditions: top dose 0.256 µM; top dose inferred
Experimental: (§1)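 Human cancer cell lines in 384-well plates, medium with 10% serum, drug for 72 h over a 256-fold dose range (nine 2-fold or five 4-fold steps up to the top dose). Adherent lines were fixed and stained with the nucleic acid dye Syto60, suspension lines read with resazurin; signal relative to control wells, capped at 0 and 100%. One two-parameter sigmoid per drug and line, fitted in a mixed model over all curves with the slope shared within a line.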

TW-37 = compound: CC(C)c1ccccc1Cc1cc(C(=O)Nc2ccc(S(=O)(=O)c3ccccc3C(C)(C)C)cc2)c(O)c(O)c1O [TW-37]; conditions: top dose 5 µM
Experimental: as §1

KIN001-270 = compound: Cc1ccc(Nc2cc(-c3cccc(N4C(=O)c5ccccc5C4=O)c3)ncn2)cc1NS(C)(=O)=O [KIN001-270]; conditions: top dose 20 µM; top dose inferred
Experimental: as §1

MP470 = compound: S=C(NCc1ccc2c(c1)OCO2)N1CCN(c2ncnc3c2oc2ccccc23)CC1 [MP470]; conditions: top dose 20 µM; top dose inferred
Experimental: as §1

T0901317 = compound: O=S(=O)(c1ccccc1)N(CC(F)(F)F)c1ccc(C(O)(C(F)(F)F)C(F)(F)F)cc1 [T0901317]; conditions: top dose 10.24 µM; top dose inferred
Experimental: as §1

Gemcitabine = compound: Nc1ccn([C@@H]2O[C@H](CO)[C@@H](O)C2(F)F)c(=O)n1 [Gemcitabine]; conditions: top dose 1.024 µM
Experimental: as §1

LFM-A13 = compound: C/C(O)=C(\C#N)C(=O)Nc1cc(Br)ccc1Br [LFM-A13]; conditions: top dose 16 µM; top dose inferred
Experimental: as §1

Bicalutamide = compound: CC(O)(CS(=O)(=O)c1ccc(F)cc1)C(=O)Nc1ccc(C#N)c(C(F)(F)F)c1 [Bicalutamide]; conditions: top dose inferred
Experimental: as §1

[1] = top dose 1.024 µM, screen: GDSC drug entry 150
[2] = top dose 10 µM, screen: GDSC drug entry 1502

## MDA-MB-175-VII (breast, adherent)
AUY922
  AUC: 0.848
  IC50: 221 nM
TW-37
  AUC: 0.571
  IC50: 498 nM
KIN001-270
  AUC: 0.986
  IC50: > 20 µM
MP470
  AUC: 0.93
  IC50: > 20 µM
T0901317
  AUC: 0.983
  IC50: > 10.2 µM
Gemcitabine
  AUC: 0.885
  IC50: > 1020 nM
LFM-A13
  AUC: 0.977
  IC50: > 16 µM
Bicalutamide; [1]
  AUC: 0.986
  IC50: > 1020 nM
Bicalutamide; [2]
  AUC: 0.986
  IC50: > 10000 nM

## BCPAP (thyroid, adherent)
AUY922
  AUC: 0.59
  IC50: 27.5 nM
TW-37
  AUC: 0.469
  IC50: 259 nM
KIN001-270
  AUC: 0.968
  IC50: > 20 µM
MP470
  AUC: 0.969
  IC50: > 20 µM
T0901317
  AUC: 0.974
  IC50: > 10.2 µM
Gemcitabine
  AUC: 0.125
  IC50: 4.85 nM
LFM-A13
  AUC: 0.943
  IC50: > 16 µM
Bicalutamide; [1]
  AUC: 0.988
  IC50: > 1020 nM
Bicalutamide; [2]
  AUC: 0.974
  IC50: > 10000 nM

## GAMG (glioma, adherent)
AUY922
  AUC: 0.423
  IC50: 9.76 nM
TW-37
  AUC: 0.478
  IC50: 272 nM
KIN001-270
  AUC: 0.922
  IC50: > 20 µM
MP470
  AUC: 0.802
  IC50: 10.4 µM
T0901317
  AUC: 0.958
  IC50: > 10.2 µM
Gemcitabine
  AUC: 0.198
  IC50: 7.69 nM
LFM-A13
  AUC: 0.939
  IC50: > 16 µM
Bicalutamide; [1]
  AUC: 0.98
  IC50: > 1020 nM
Bicalutamide; [2]
  AUC: 0.963
  IC50: > 10000 nM

## NUGC-3 (stomach, adherent)
AUY922
  AUC: 0.66
  IC50: 47.3 nM
TW-37
  AUC: 0.712
  IC50: 1350 nM
KIN001-270
  AUC: 0.974
  IC50: > 20 µM
MP470
  AUC: 0.931
  IC50: > 20 µM
T0901317
  AUC: 0.97
  IC50: > 10.2 µM
Gemcitabine
  AUC: 0.314
  IC50: 18 nM
LFM-A13
  AUC: 0.972
  IC50: > 16 µM
Bicalutamide; [1]
  AUC: 0.984
  IC50: > 1020 nM
Bicalutamide; [2]
  AUC: 0.976
  IC50: > 10000 nM

## SW1573 (lung adenocarcinoma, adherent)
AUY922
  AUC: 0.662
  IC50: 52.8 nM
TW-37
  AUC: 0.512
  IC50: 341 nM
KIN001-270
  AUC: 0.978
  IC50: > 20 µM
MP470
  AUC: 0.907
  IC50: > 20 µM
T0901317
  AUC: 0.975
  IC50: > 10.2 µM
Gemcitabine
  AUC: 0.765
  IC50: 506 nM
LFM-A13
  AUC: 0.945
  IC50: > 16 µM
Bicalutamide; [1]
  AUC: 0.981
  IC50: > 1020 nM
Bicalutamide; [2]
  AUC: 0.966
  IC50: > 10000 nM

## NCI-H596 (lung adenocarcinoma, adherent)
AUY922
  AUC: 0.572
  IC50: 26.7 nM
TW-37
  AUC: 0.806
  IC50: 3510 nM
KIN001-270
  AUC: 0.98
  IC50: > 20 µM
MP470
  AUC: 0.982
  IC50: > 20 µM
T0901317
  AUC: 0.982
  IC50: > 10.2 µM
Gemcitabine
  AUC: 0.621
  IC50: 152 nM
LFM-A13
  AUC: 0.955
  IC50: > 16 µM
Bicalutamide; [1]
  AUC: 0.982
  IC50: > 1020 nM
Bicalutamide; [2]
  AUC: 0.977
  IC50: > 10000 nM

## PC-14 (lung adenocarcinoma, adherent)
AUY922
  AUC: 0.551
  IC50: 21.6 nM
TW-37
  AUC: 0.529
  IC50: 370 nM
KIN001-270
  AUC: 0.944
  IC50: > 20 µM
MP470
  AUC: 0.96
  IC50: > 20 µM
T0901317
  AUC: 0.99
  IC50: > 10.2 µM
Gemcitabine
  AUC: 0.545
  IC50: 83.6 nM
LFM-A13
  AUC: 0.899
  IC50: > 16 µM
Bicalutamide; [1]
  AUC: 0.989
  IC50: > 1020 nM
Bicalutamide; [2]
  AUC: 0.983
  IC50: > 10000 nM

## SW837 (large intestine, adherent)
AUY922
  AUC: 0.584
  IC50: 29.2 nM
TW-37
  AUC: 0.713
  IC50: 1540 nM
KIN001-270
  AUC: 0.977
  IC50: > 20 µM
MP470
  AUC: 0.904
  IC50: > 20 µM
T0901317
  AUC: 0.983
  IC50: > 10.2 µM
Gemcitabine
  AUC: 0.405
  IC50: 32.4 nM
LFM-A13
  AUC: 0.976
  IC50: > 16 µM
Bicalutamide; [1]
  AUC: 0.982
  IC50: > 1020 nM
Bicalutamide; [2]
  AUC: 0.965
  IC50: > 10000 nM

## NCI-H727 (lung carcinoid, adherent)
AUY922
  AUC: 0.445
TW-37
  AUC: 0.652
  IC50: 1090 nM
KIN001-270
  AUC: 0.973
  IC50: > 20 µM
MP470
  AUC: 0.93
  IC50: > 20 µM
T0901317
  AUC: 0.965
  IC50: > 10.2 µM
Gemcitabine
  AUC: 0.233
  IC50: 6.18 nM
LFM-A13
  AUC: 0.909
  IC50: > 16 µM
Bicalutamide; [1]
  AUC: 0.974
  IC50: > 1020 nM
Bicalutamide; [2]
  AUC: 0.949
  IC50: > 10000 nM

## PL4 (pancreas, adherent)
AUY922
  AUC: 0.833
  IC50: 174 nM
TW-37
  AUC: 0.638
  IC50: 765 nM
KIN001-270
  AUC: 0.972
  IC50: > 20 µM
MP470
  AUC: 0.92
  IC50: > 20 µM
T0901317
  AUC: 0.981
  IC50: > 10.2 µM
Gemcitabine
  AUC: 0.619
  IC50: 138 nM
LFM-A13
  AUC: 0.987
  IC50: > 16 µM
Bicalutamide; [1]
  AUC: 0.971
  IC50: > 1020 nM
Bicalutamide; [2]
  AUC: 0.986
  IC50: > 10000 nM

## NCI-H2009 (lung adenocarcinoma, adherent)
AUY922
  AUC: 0.473
  IC50: 13.5 nM
TW-37
  AUC: 0.533
  IC50: 386 nM
KIN001-270
  AUC: 0.981
  IC50: > 20 µM
MP470
  AUC: 0.896
  IC50: > 20 µM
T0901317
  AUC: 0.98
  IC50: > 10.2 µM
Gemcitabine
  AUC: 0.161
  IC50: 5.41 nM
LFM-A13
  AUC: 0.978
  IC50: > 16 µM
Bicalutamide; [1]
  AUC: 0.987
  IC50: > 1020 nM
Bicalutamide; [2]
  AUC: 0.982
  IC50: > 10000 nM

## NCI-H196 (small cell lung carcinoma, adherent)
AUY922
  AUC: 0.945
  IC50: > 256 nM
TW-37
  AUC: 0.678
  IC50: 1000 nM
KIN001-270
  AUC: 0.984
  IC50: > 20 µM
MP470
  AUC: 0.915
  IC50: > 20 µM
T0901317
  AUC: 0.988
  IC50: > 10.2 µM
Gemcitabine
  AUC: 0.973
  IC50: > 1020 nM
LFM-A13
  AUC: 0.987
  IC50: > 16 µM
Bicalutamide; [1]
  AUC: 0.988
  IC50: > 1020 nM
Bicalutamide; [2]
  AUC: 0.987
  IC50: > 10000 nM

## JHU-011 (head and neck, adherent)
AUY922
  AUC: 0.41
  IC50: 9.09 nM
TW-37
  AUC: 0.553
  IC50: 436 nM
KIN001-270
  AUC: 0.967
  IC50: > 20 µM
MP470
  AUC: 0.978
  IC50: > 20 µM
T0901317
  AUC: 0.971
  IC50: > 10.2 µM
Gemcitabine
  AUC: 0.145
  IC50: 5.16 nM
LFM-A13
  AUC: 0.982
  IC50: > 16 µM
Bicalutamide; [1]
  AUC: 0.986
  IC50: > 1020 nM

## BHY (head and neck, adherent)
AUY922
  AUC: 0.441
  IC50: 11.1 nM
TW-37
  AUC: 0.63
  IC50: 716 nM
KIN001-270
  AUC: 0.952
  IC50: > 20 µM
MP470
  AUC: 0.948
  IC50: > 20 µM
T0901317
  AUC: 0.987
  IC50: > 10.2 µM
Gemcitabine
  AUC: 0.181
  IC50: 6.98 nM
LFM-A13
  AUC: 0.956
  IC50: > 16 µM
Bicalutamide; [1]
  AUC: 0.983
  IC50: > 1020 nM
Bicalutamide; [2]
  AUC: 0.985
  IC50: > 10000 nM

## NCI-H1993 (lung adenocarcinoma, adherent)
AUY922
  AUC: 0.924
  IC50: > 256 nM
TW-37
  AUC: 0.669
  IC50: 1080 nM
KIN001-270
  AUC: 0.969
  IC50: > 20 µM
MP470
  AUC: 0.982
  IC50: > 20 µM
T0901317
  AUC: 0.983
  IC50: > 10.2 µM
Gemcitabine
  AUC: 0.983
  IC50: > 1020 nM
LFM-A13
  AUC: 0.953
  IC50: > 16 µM
Bicalutamide; [1]
  AUC: 0.983
  IC50: > 1020 nM
Bicalutamide; [2]
  AUC: 0.981
  IC50: > 10000 nM
